Measurements: the supplement of paper PMC4967469
The IC50 comes from the fitted curve, where viability falls to half of the control; fits outside the tested doses are given as limits. AUC, from the same fit, is the share of area under the viability curve across the 256-fold dose range: 1 means no effect, lower means more sensitive. The top dose, if marked as inferred, is not printed in the source and was worked back from the curve model. For some assays here: Drugs with an entry number were screened twice under separate entries, and the two screens often disagree.

What was measured:
Test in all cases: Viability of human cancer cell lines after 72 h of drug (GDSC screen)
[1] = compound: Cn1ncnc1[C@H]1c2n[nH]c(=O)c3cc(F)cc(c23)N[C@@H]1c1ccc(F)cc1 [BMN-673]; details: top dose 10 µM; top dose inferred
Experimental: (§1)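 Human cancer cell lines in 384-well plates, medium with 10% serum, drug for 72 h over a 256-fold dose range (nine 2-fold or five 4-fold steps up to the top dose). Adherent lines were fixed and stained with the nucleic acid dye Syto60, suspension lines read with resazurin; signal relative to control wells, capped at 0 and 100%. One two-parameter sigmoid per drug and line, fitted in a mixed model over all curves with the slope shared within a line.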

[2] = compound: COc1cc(C(=O)NC2CCN(C)CC2)ccc1Nc1ncc2c(n1)N(C1CCCC1)CCC(=O)N2C(C)C [XMD11-85h]; details: top dose 10 µM; top dose inferred
Experimental: as §1

[3] = compound: Cc1cc([C@@H](C)Nc2ccccc2C(=O)O)c2nc(N3CCOCC3)cc(=O)n2c1 [AZD6482]
Experimental: as §1

[4] = top dose 5 µM, screen: GDSC drug entry 1066, top dose inferred
[5] = top dose 5.12 µM, screen: GDSC drug entry 156

Cell Line | AUC [1] | IC50 [1] [µM] | AUC [2] | IC50 [2] [µM] | AUC [3, 4] | IC50 [3, 4] [µM] | AUC [3, 5] | IC50 [3, 5] [µM]
FLO-1 (oesophagus, adherent) | 0.815 | 8.94 | 0.909 | > 10 | 0.691 | 1.37 |  | 
EoL-1-cell (haematopoietic neoplasm, suspension) | 0.72 | 2.4 | 0.889 | 9.07 |  |  | 0.97 | > 5.12
JHH-1 (liver, adherent) | 0.865 | > 10 | 0.958 | > 10 | 0.731 | 1.52 | 0.779 | 2.27
LB647-SCLC (small cell lung carcinoma, semi-adherent) | 0.904 | > 10 | 0.94 | > 10 | 0.94 | > 5 | 0.944 | > 5.12
CAL-33 (head and neck, adherent) | 0.561 | 0.915 | 0.923 | > 10 | 0.814 | 2.71 | 0.733 | 
PEO1 (ovary, adherent) | 0.799 | 5.02 | 0.929 | > 10 | 0.987 | > 5 |  | 
IGR-1 (melanoma, adherent) | 0.859 | 6.73 | 0.928 | > 10 | 0.856 | 3.27 | 0.974 | > 5.12
SNU-C2B (large intestine, adherent) | 0.853 | > 10 | 0.919 | > 10 |  |  | 0.962 | > 5.12
MDST8 (large intestine, adherent) | 0.828 | 6.11 | 0.936 | > 10 | 0.958 | > 5 | 0.959 | > 5.12
EPLC-272H (lung squamous cell carcinoma, adherent) | 0.861 | > 10 | 0.92 | > 10 | 0.894 | > 5 | 0.929 | > 5.12
ES8 (Ewing sarcoma, adherent) | 0.079 | < 0.0391 | 0.936 | > 10 | 0.903 | > 5 | 0.978 | > 5.12
TGBC1TKB (biliary tract, adherent) | 0.898 | > 10 | 0.987 | > 10 | 0.632 | 0.722 | 0.89 | > 5.12
CW-2 (large intestine, adherent) | 0.961 | > 10 | 0.978 | > 10 | 0.972 | > 5 | 0.989 | > 5.12
EW-24 (Ewing sarcoma, semi-adherent) | 0.927 | > 10 | 0.964 | > 10 | 0.968 | > 5 | 0.993 | > 5.12
A101D (melanoma, adherent) | 0.769 | 4.66 | 0.871 | > 10 | 0.936 | > 5 | 0.741 | 1.88
NCI-H1876 (small cell lung carcinoma, adherent) | 0.18 | 0.0669 | 0.956 | > 10 | 0.897 | > 5 | 0.987 | > 5.12
MSTO-211H (mesothelioma, adherent) | 0.111 | 0.0411 | 0.937 | > 10 | 0.991 | > 5 | 0.991 | > 5.12
HCC-56 (large intestine, adherent) | 0.979 | > 10 | 0.984 | > 10 | 0.986 | > 5 | 0.972 | > 5.12
M059J (glioma, adherent) | 0.888 | > 10 | 0.961 | > 10 | 0.88 | > 5 | 0.916 | > 5.12
UWB1.289 (ovary, adherent) |  |  | 0.97 | > 10 | 0.899 | > 5 |  | 
H2810 (mesothelioma, adherent) | 0.646 | 1.66 | 0.958 | > 10 |  |  |  | 
RCC-AB (kidney, adherent) | 0.775 | 5.22 | 0.96 | > 10 | 0.943 | > 5 |  | 
NCI-H1437 (lung adenocarcinoma, adherent) | 0.943 | > 10 | 0.953 | > 10 | 0.94 | > 5 | 0.921 | > 5.12

Cell Line | AUC [1] | IC50 [1] [µM] | AUC [2] | IC50 [2] [µM] | AUC [3, 4] | IC50 [3, 4] [µM] | AUC [3, 5] | IC50 [3, 5] [µM]
KYSE-150 (oesophagus, adherent) | 0.95 | > 10 | 0.962 | > 10 | 0.951 | > 5 | 0.928 | > 5.12
VMRC-RCZ (kidney, adherent) | 0.943 | > 10 | 0.98 | > 10 | 0.779 | 2.39 | 0.436 | 0.207
H2795 (mesothelioma, adherent) | 0.748 | 3.18 | 0.96 | > 10 | 0.89 | > 5 | 0.861 | 4.24
NB6 (neuroblastoma, adherent) |  |  | 0.93 | > 10 | 0.936 | > 5 | 0.937 | > 5.12
CHP-212 (neuroblastoma, adherent) | 0.254 | 0.132 | 0.912 | > 10 | 0.919 | > 5 | 0.94 | > 5.12
MLMA (hairy cell leukaemia, semi-adherent) | 0.903 | > 10 | 0.927 | > 10 | 0.836 | 3.37 | 0.816 | 2.88
HT55 (large intestine, adherent) |  |  | 0.99 | > 10 | 0.99 | > 5 | 0.983 | > 5.12
JHOS-2 (ovary, adherent) | 0.662 | 1.91 | 0.904 | > 10 | 0.84 | 4.31 |  | 
SK-GT-4 (oesophagus, adherent) | 0.882 | > 10 | 0.894 | > 10 | 0.966 | > 5 |  | 
OCI-AML3 (acute myeloid leukaemia, suspension) | 0.835 | 5.29 | 0.863 | 6.73 | 0.957 | > 5 | 0.96 | > 5.12
H2804 (mesothelioma, adherent) | 0.576 | 1.03 | 0.961 | > 10 | 0.944 | > 5 | 0.929 | > 5.12
TK10 (kidney, adherent) | 0.888 | > 10 | 0.939 | > 10 | 0.863 | > 5 | 0.931 | > 5.12
NCI-H28 (mesothelioma, adherent) | 0.792 | 6.19 | 0.941 | > 10 | 0.835 | 4.86 | 0.893 | > 5.12
WIL2-NS (lymphoid neoplasm, suspension) | 0.585 | 1.02 | 0.944 | > 10 | 0.989 | > 5 | 0.882 | 3.7
T84 (large intestine, adherent) | 0.972 | > 10 | 0.988 | > 10 | 0.955 | > 5 | 0.986 | > 5.12
DMS-114 (small cell lung carcinoma, adherent) | 0.86 | > 10 | 0.964 | > 10 | 0.949 | > 5 | 0.973 | > 5.12
OV-7 (ovary, adherent) | 0.803 | 8.44 | 0.96 | > 10 | 0.765 | 2.82 |  | 
DOV13 (ovary, adherent) | 0.702 | 2.55 | 0.953 | > 10 | 0.845 | 4.5 |  | 
TT2609-C02 (thyroid, adherent) | 0.945 | > 10 | 0.985 | > 10 | 0.957 | > 5 | 0.891 | > 5.12
HCC-15 (lung squamous cell carcinoma, adherent) | 0.915 | > 10 | 0.924 | > 10 | 0.881 | > 5 | 0.979 | > 5.12
DBTRG-05MG (glioma, adherent) | 0.858 | > 10 | 0.978 | > 10 | 0.938 | > 5 | 0.825 | 3.81
ES1 (Ewing sarcoma, adherent) | 0.154 | 0.055 | 0.942 | > 10 | 0.933 | > 5 | 0.96 | > 5.12
NCI-H1694 (small cell lung carcinoma, suspension) | 0.558 | 0.902 | 0.955 | > 10 | 0.978 | > 5 | 0.984 | > 5.12

Cell Line | AUC [1] | IC50 [1] [µM] | AUC [2] | IC50 [2] [µM] | AUC [3, 4] | IC50 [3, 4] [µM] | AUC [3, 5] | IC50 [3, 5] [µM]
LB831-BLC (bladder, adherent) | 0.858 | 8.44 | 0.96 | > 10 | 0.929 | > 5 | 0.896 | > 5.12
SF295 (glioma, adherent) | 0.623 | 1.4 | 0.962 | > 10 | 0.933 | > 5 | 0.764 | 2
OVCAR-8 (ovary, adherent) | 0.468 | 0.516 | 0.945 | > 10 | 0.935 | > 5 | 0.953 | > 5.12
HCC2998 (large intestine, adherent) |  |  | 0.916 | > 10 | 0.968 | > 5 | 0.988 | > 5.12
AGS (stomach, adherent) |  |  | 0.908 | > 10 | 0.913 | > 5 | 0.918 | > 5.12
NB69 (neuroblastoma, adherent) |  |  | 0.893 | 9.52 | 0.917 | > 5 | 0.883 | 4.42
C-4-I (cervix, adherent) |  |  | 0.926 | > 10 | 0.891 | > 5 | 0.968 | > 5.12
LoVo (large intestine, adherent) |  |  | 0.915 | > 10 |  |  | 0.7 | 1.17
DMS-273 (small cell lung carcinoma, adherent) |  |  | 0.957 | > 10 | 0.714 | 1.31 | 0.861 | 4.76
HCT-116 (large intestine, adherent) |  |  | 0.886 | > 10 | 0.941 | > 5 | 0.84 | 3.28
IM-95 (stomach, adherent) |  |  | 0.984 | > 10 | 0.956 | > 5 | 0.866 | 5.12
AU565 (breast, adherent) |  |  | 0.961 | > 10 | 0.909 | > 5 | 0.913 | > 5.12
NH-12 (neuroblastoma, adherent) |  |  | 0.951 | > 10 | 0.9 | > 5 | 0.826 | 3.61
MKN28 (stomach, adherent) |  |  | 0.932 | > 10 | 0.964 | > 5 | 0.986 | > 5.12
OCI-LY7 (B-cell lymphoma, suspension) |  |  | 0.988 | > 10 | 0.574 | 0.472 |  | 
CAPAN-1 (pancreas, adherent) |  |  | 0.985 | > 10 | 0.984 | > 5 | 0.938 | > 5.12
NEC8 (testis, adherent) |  |  | 0.989 | > 10 | 0.823 | 2.37 | 0.954 | > 5.12
U-2-OS (osteosarcoma, adherent) |  |  | 0.976 | > 10 | 0.876 | > 5 | 0.962 | > 5.12
CAL-62 (thyroid, adherent) | 0.341 | 0.232 | 0.918 | > 10 |  |  |  | 
ZR-75-30 (breast, adherent) | 0.955 | > 10 | 0.971 | > 10 |  |  |  | 
HCC1395 (breast, adherent) |  |  | 0.982 | > 10 | 0.929 | > 5 | 0.944 | > 5.12
CAL-78 (chondrosarcoma, adherent) |  |  | 0.935 | > 10 | 0.983 | > 5 | 0.865 | > 5.12
KYSE-140 (oesophagus, adherent) |  |  | 0.965 | > 10 | 0.984 | > 5 | 0.982 | > 5.12
